Test results published in paper PMC11655647.
Where a chain is given by its changes, count along the chain named. Read-outs that look alike come from different tables or passages of the source. Results are given in words; binding and its absence hold for the method and conditions named. In cells and extracts the contact can be indirect. Some binding calls cover weakened binding; strength is not graded here. Where a sequence is shown, tags or fusion partners need not be part of it.

The chains behind the UniProt entries cited, without tags or fusion partners. Residues count along the entry.
UniProt P20029, residues 20-655: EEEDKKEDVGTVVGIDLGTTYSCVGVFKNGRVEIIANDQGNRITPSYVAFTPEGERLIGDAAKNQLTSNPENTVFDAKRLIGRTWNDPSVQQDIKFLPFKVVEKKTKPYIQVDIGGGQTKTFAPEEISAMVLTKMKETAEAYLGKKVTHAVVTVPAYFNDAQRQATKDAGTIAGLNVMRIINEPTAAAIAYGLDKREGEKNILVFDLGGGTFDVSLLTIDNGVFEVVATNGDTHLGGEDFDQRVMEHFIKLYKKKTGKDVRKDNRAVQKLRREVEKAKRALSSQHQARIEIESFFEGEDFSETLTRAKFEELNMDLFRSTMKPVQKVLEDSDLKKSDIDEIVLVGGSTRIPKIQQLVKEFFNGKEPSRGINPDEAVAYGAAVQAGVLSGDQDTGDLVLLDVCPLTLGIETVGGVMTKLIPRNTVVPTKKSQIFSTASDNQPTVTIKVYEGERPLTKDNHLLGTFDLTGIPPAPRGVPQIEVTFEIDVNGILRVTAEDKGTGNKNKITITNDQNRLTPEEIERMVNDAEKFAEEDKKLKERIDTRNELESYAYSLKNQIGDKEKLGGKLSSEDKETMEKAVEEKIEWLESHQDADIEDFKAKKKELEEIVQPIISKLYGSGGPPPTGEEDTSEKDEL
UniProt P11021, residues 19-654: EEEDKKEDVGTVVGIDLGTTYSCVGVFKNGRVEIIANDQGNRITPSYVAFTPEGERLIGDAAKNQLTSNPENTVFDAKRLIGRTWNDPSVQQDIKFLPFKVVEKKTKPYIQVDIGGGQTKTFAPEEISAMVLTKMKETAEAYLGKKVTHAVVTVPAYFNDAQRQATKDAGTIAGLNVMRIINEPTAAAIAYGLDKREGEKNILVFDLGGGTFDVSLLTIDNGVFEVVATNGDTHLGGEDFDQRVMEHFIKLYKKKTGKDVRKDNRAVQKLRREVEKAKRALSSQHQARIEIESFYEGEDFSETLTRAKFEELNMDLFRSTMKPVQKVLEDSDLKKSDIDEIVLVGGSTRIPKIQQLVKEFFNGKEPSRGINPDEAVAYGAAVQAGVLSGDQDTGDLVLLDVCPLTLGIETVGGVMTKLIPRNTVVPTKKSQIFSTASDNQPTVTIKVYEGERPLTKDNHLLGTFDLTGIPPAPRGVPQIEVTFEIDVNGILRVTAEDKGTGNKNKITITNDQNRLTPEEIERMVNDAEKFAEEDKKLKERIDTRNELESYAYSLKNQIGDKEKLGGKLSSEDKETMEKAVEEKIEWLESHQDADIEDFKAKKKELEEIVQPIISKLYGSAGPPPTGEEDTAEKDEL

Experiments:
[1] = biological target: T1, mouse GALNTL5 protein tagged with green fluorescent protein (GFP) (mouse) (UniProt Q9D4M9); experiment: co-IP; lysates of GALNTL5-GFP/GC-2spd(ts) cells with cumate; IP with anti-GFP antibody, western blot with anti-BiP and anti-calnexin antibodies
T1 sequence: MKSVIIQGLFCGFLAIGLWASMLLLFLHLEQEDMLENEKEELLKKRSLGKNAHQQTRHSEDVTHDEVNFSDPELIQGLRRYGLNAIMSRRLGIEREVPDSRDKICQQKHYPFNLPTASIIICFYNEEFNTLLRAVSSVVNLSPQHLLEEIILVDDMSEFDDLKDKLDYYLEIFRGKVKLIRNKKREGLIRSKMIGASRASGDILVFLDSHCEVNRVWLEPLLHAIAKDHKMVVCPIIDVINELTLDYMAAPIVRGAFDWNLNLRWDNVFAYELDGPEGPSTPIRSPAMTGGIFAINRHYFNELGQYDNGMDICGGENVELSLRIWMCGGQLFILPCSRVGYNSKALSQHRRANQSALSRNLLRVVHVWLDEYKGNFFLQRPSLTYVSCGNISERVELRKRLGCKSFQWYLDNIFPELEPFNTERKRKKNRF

[2] = biological target: T2, Flag-tagged mouse GALNTL5 quadruple mutant (N68K, N140K, N353K, N390K) (mouse) (UniProt Q9D4M9); experiment: co-IP; GC-2spd(ts) cells transiently transfected with Flag-tagged mouse GALNTL5 cDNAs, cultured overnight; IP of lysates with the DDDDK-tagged Protein Magnetic purification Kit (anti-Flag), western blot for the chaperones
T2 sequence: T1 sequence with N68K, N140K, N353K, N390K

[3] = biological target: T3, Flag-tagged mouse GALNTL5, full length (mouse) (UniProt Q9D4M9); experiment: as above
T3 sequence (chain, N-glycans at the N-glycosylation sites N68, N140, N353 and N390): T1 sequence

[4] = biological target: T4, Flag-tagged human GALNTL5 (human) (UniProt Q7Z4T8); experiment: co-IP; HEK293T cells transfected with Flag-tagged human GALNTL5 cDNAs, cultured overnight; IP of lysates with the DDDDK-tagged Protein Magnetic purification Kit (anti-Flag), western blot
T4 sequence (chain, N-glycan structures (sites not printed)): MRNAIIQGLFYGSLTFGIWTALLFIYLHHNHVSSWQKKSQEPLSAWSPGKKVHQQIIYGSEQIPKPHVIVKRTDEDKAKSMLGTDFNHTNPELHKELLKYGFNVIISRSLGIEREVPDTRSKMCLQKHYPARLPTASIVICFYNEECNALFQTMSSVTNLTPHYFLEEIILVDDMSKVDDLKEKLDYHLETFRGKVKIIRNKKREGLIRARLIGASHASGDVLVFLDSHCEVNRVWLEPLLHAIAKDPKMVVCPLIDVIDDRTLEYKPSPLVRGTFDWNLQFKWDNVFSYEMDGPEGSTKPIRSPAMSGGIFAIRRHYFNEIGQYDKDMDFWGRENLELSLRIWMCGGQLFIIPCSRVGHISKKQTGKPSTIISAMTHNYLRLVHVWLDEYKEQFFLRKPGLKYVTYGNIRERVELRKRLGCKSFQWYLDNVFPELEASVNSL

[5] = biological target: T2, Flag-tagged mouse GALNTL5 quadruple mutant (N68K, N140K, N353K, N390K) (mouse); experiment: co-IP; GC-2spd(ts) cells transiently transfected with Flag-tagged mouse GALNTL5 cDNAs, cultured overnight; IP of lysates with the DDDDK-tagged Protein Magnetic purification Kit (anti-Flag), western blot for the chaperones; remark: listed apart in the source
[6] = biological target: T3, Flag-tagged mouse GALNTL5, full length (mouse); experiment: as above; remark: listed apart in the source

Molecule: BiP (GRP78) (mouse, endogenous) (from UniProt P20029 20-655)
- binding [1]: binds
- binding [2]: binds
- binding [3]: binds

Molecule: BiP (human, endogenous) (from UniProt P11021 19-654)
- binding [4]: binds

B1: calnexin (human, endogenous) (protein, UniProt P27824 21-592)
chain: HDGHDDDVIDIEDDLDDVIEEVEDSKPDTTAPPSSPKVTYKAPVPTGEVYFADSFDRGTLSGWILSKAKKDDTDDEIAKYDGKWEVEEMKESKLPGDKGLVLMSRAKHHAISAKLNKPFLFDTKPLIVQYEVNFQNGIECGGAYVKLLSKTPELNLDQFHDKTPYTIMFGPDKCGEDYKLHFIFRHKNPKTGIYEEKHAKRPDADLKTYFTDKKTHLYTLILNPDNSFEILVDQSVVNSGNLLNDMTPPVNPSREIEDPEDRKPEDWDERPKIPDPEAVKPDDWDEDAPAKIPDEEATKPEGWLDDEPEYVPDPDAEKPEDWDEDMDGEWEAPQIANPRCESAPGCGVWQRPVIDNPNYKGKWKPPMIDNPSYQGIWKPRKIPNPDFFEDLEPFRMTPFSAIGLELWSMTSDIFFDNFIICADRRIVDDWANDGWGLKKAADGAAEPGVVGQMIEAAEERPWLWVVYILTVALPVFLVILFCCSGKKQTSGMEYKKTDAPQPDVKEEEEEKEEEKDKGDEEEEGEEKLEEKQKSDAEEDGGTVSQEEEDRKPKAEEDEILNRSPRNRKPRRE
- binding [4]: binds

B2: calnexin (mouse, endogenous) (protein, UniProt P35564 21-591)
chain: HDGHDDDAIDIEDDLDDVIEEVEDSKSKSDASTPPSPKVTYKAPVPTGEVYFADSFDRGSLSGWILSKAKKDDTDDEIAKYDGKWEVDEMKETKLPGDKGLVLMSRAKHHAISAKLNKPFLFDTKPLIVQYEVNFQNGIECGGAYVKLLSKTAELSLDQFHDKTPYTIMFGPDKCGEDYKLHFIFRHKNPKTGVYEEKHAKRPDADLKTYFTDKKTHLYTLILNPDNSFEILVDQSVVNSGNLLNDMTPPVNPSREIEDPEDRKPEDWDERPKIADPDAVKPDDWDEDAPSKIPDEEATKPEGWLDDEPEYIPDPDAEKPEDWDEDMDGEWEAPQIANPKCESAPGCGVWQRPMIDNPNYKGKWKPPMIDNPNYQGIWKPRKIPNPDFFEDLEPFKMTPFSAIGLELWSMTSDIFFDNFIISGDRRVVDDWANDGWGLKKAADGAAEPGVVLQMLEAAEERPWLWVVYILTVALPVFLVILFCCSGKKQSNAMEYKKTDAPQPDVKDEEGKEEEKNKRDEEEEEEKLEEKQKSDAEEDGVTGSQDEEDSKPKAEEDEILNRSPRNRKPRRE
- binding [1]: binds
- binding [5]: no binding
- binding [6]: binds
